Experimental data taken from US20100137158A1 (WISCONSIN ALUMNI RESEARCH FOUNDATION, published 2010).

Legend:
[1] = target: T1, hen egg lysozyme (biotinylated) (hen, UniProt P00698 19-147, biotinylated); test: yeast surface display, flow cytometry
T1 construct: also called irrelevant biotinylated ligand

[2] = target: T2, streptavidin-phycoerythrin conjugate (UniProt P22629 37-163); test: yeast surface display titration, flow cytometry; single sample titration
[3] = target: T3, biotin-phycoerythrin conjugate; test: as above
T3 construct: also called Biotin-PE; biotinylated PE

[4] = target: T4, recombinant human TrkC/Fc (human, UniProt Q16288 32-429); test: yeast surface display (data not shown)
T4 construct: Bought; not shown: Fc
T4 sequence (looked up): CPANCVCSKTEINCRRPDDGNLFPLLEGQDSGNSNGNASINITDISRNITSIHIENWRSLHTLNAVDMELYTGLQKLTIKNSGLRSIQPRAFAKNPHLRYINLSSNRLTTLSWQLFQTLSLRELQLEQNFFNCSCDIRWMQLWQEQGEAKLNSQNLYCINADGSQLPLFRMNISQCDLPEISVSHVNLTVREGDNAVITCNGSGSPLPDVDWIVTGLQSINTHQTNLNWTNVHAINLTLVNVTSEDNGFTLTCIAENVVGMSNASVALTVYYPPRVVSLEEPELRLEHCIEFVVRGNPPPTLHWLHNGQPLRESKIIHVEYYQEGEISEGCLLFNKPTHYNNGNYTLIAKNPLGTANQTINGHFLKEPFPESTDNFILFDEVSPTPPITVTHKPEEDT

[5] = target: T5, TrkA (UniProt P04629 33-423); test: yeast surface display (data not shown)
T5 construct: also called tyrosine kinase neurotrophin receptor TrkA; not shown: not described

[6] = target: T6, Recombinant monomeric human tyrosine kinase receptor B (TrkB) (human, UniProt Q16620 32-430, biotinylated using Sulfo-NHS-LC-biotin (unmodified in the check of paragraph 109)); test: solution phase competition: soluble T3 with soluble TrkB, unbound TrkB measured with yeast displaying T3 by FACS
T6 construct: extracellular domain; Bought (R & D Systems); also called monomeric extracellular domain of a neurotrophin receptor (TrkB); biotinylated monomeric TrkB
T6 sequence (Q16620 32-430): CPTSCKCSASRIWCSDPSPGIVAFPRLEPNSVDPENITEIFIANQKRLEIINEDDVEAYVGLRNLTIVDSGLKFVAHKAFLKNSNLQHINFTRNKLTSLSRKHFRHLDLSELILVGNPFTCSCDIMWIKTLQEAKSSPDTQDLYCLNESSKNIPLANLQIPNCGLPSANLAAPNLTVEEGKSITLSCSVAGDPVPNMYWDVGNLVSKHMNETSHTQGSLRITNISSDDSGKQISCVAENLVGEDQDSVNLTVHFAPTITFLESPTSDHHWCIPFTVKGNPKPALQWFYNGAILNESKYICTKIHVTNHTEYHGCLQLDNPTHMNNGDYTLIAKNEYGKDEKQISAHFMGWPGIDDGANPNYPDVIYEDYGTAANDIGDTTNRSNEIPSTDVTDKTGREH

[7] = target: T6, Recombinant monomeric human tyrosine …; test: yeast surface display titration (FIG. 2C, single sample), flow cytometry
[8] = target: T6, Recombinant monomeric human tyrosine …; test: soluble purified T3 titrated on TrkB-loaded beads, intrinsic GFP fluorescence by flow cytometry
[9] = target: T6, Recombinant monomeric human tyrosine …; test: yeast surface display titration, flow cytometry; triplicate titrations, KD ± SD
[10] = target: T6, Recombinant monomeric human tyrosine …; test: yeast surface display titration of single-loop variant, flow cytometry
[11] = target: T2, streptavidin-phycoerythrin conjugate; test: yeast surface display titration, flow cytometry; triplicate titrations, KD ± SD
T2 sequence (P22629 37-163): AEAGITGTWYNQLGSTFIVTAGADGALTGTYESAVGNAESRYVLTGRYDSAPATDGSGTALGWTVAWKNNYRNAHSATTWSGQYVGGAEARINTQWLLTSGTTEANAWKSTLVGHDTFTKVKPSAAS

T1 sequence (P00698 19-147): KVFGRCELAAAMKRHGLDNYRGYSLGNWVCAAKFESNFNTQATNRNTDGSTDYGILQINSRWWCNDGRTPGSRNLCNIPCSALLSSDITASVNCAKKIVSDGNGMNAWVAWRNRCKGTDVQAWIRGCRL
TrkA, sequence (P04629 33-423): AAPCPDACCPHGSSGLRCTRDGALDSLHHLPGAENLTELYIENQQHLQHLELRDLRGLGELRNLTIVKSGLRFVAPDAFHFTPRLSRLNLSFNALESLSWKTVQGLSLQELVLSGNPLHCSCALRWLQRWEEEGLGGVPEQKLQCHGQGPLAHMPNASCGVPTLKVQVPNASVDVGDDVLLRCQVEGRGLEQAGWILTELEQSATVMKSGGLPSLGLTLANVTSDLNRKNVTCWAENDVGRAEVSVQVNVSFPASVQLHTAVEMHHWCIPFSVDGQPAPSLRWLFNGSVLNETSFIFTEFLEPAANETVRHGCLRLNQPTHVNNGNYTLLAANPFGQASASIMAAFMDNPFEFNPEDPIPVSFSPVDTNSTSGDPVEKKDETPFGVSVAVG

B1: 2.17 GFAb (designed binder)
chain: MSKGEELFTGVVPILVELNGDVNGHKFSVSGEGEGDATHGKLTLKFICTTGKLPVPWPTLVTTLGYGVQCFARYPDHMKQHDFFKSTMPEGYVQERTIFFKDLKKARMRLFLMTSDGTYKTRAEVKFEGGTLVNRIELKGIDFKEDGNILGHKLEYNYNSHNVYIMADKQKNGIKANFKIRHNIKSREYGDTLLSTRDGSVQLADHYQQNTPIGDGPVLLPDNHYLSTQSKLSKDPNEKRDHMVLVEFVTAAGITHGMDELYK
notes: Scaffold 20-5-8
binding result [1]: no binding (tested: 500 nM) | Kd [2]: 110 nM

B2: GFAb 2 (Biotin-PE selection) (designed binder)
chain: MSKGEELFTGVVPILVELNGDVNGHKFSVSGEGEGDATHGKLTLKFICTTGKLPVPWPTLVTTLGYGVQCFARYPDHMKQHDFFKSTMPEGYVQERTIFFKDLKRGLFWPVLITSDGTYKTRAEVKFKGGTLVNRIELKGIDFKEDGNILGHKLEYNYNSHNVYIMADKQKNGIKANFKIRHNIKSRPNPVFRQNTRDGSVQLADHYQQNTPIGDGPVLLPDNHYLSTQSKLSKDPNEKRDHMVLVEFVTAAGITHGMDELYK
notes: Scaffold printed as 20-5-8 + E115K
binding result [1]: no binding (tested: 500 nM) | Kd [3]: 1400 nM

B3: GFAb 5 (Biotin-PE selection) (designed binder)
chain: MSKGEELFTGVVPILVELNGDVNGHKFSVSGEGEGDATHGKLTLKFICTTGKLPVPWPTLVTTLGYGVQCFARYPDHMKQHDFFKSTMPEGYVQERTIFFKDLKSCSWCLFTLTSDGTYKTRAEVKFEGGTLVNRIELKGIDFKEDGNILGHKLEYNYNSHNVYIMADKQKNGIKANFKIRHNIKSRKNQMGMGKTRDGSVQLADHYQQNTPIGDGPVLLPDNHYLSTQSKLSKDPNEKRDHMVLVEFVTAAGITHGMDELYK
notes: Scaffold 20-5-8
binding result [1]: no binding (tested: 500 nM) | Kd [3]: 260 nM

B4: GFAb 16 (Biotin-PE selection) (designed binder)
chain: MSKGEELFTGVVPILVELNGDVNGHKFSVSGEGEGDATHGKLTLKFICTTGKLPVPWPTLVTTLGYGVQCFARYPDHMKQHDFFKSTMPEGYVQERTIFFKDLKNCRWCTYYLTSDGTYKTRAEVKFEGGTLVNRIELKGIDFKEDGNILGHKLEYNYNSHNVYIMADKQKNGIKANFKIRHNIKSRSTSNWMRMTRDGSVQLADHYQQNTPIGDGPVLLPDNHYLSTQSKLSKDPNEKRDHMVLVEFVTAAGITHGMDELYK
notes: Scaffold 20-5-8
binding result [1]: no binding (tested: 500 nM) | Kd [3]: 190 nM

B5: T3 GFAb (designed binder)
chain: MSKGEELFTGVVPILVELNGDVNGHKFSVSGEGEGDATHGKLTLKFICTTGKLPVPWPTLVTTLGYGVQCFARYPDHMKQHDFFKSTMPEGYVQERTIFFKDLKVINPFTVRSTSDGTYKTRAEVKFEGGTLVNRIELKGIDFKEDGNILGHKLEYNYNSHNVYIMADKQKNGIKANFKIRHNIKSRNAWVVHRRTRDGSVQLADHYQQNTPIGDGPVLLPDNHYLSTQSKLSKDPNEKRDHMVLVEFVTAAGITHGMDELYK
notes: The format is named under assay in each row; also called GFAb T3
binding result [4]: no binding | binding result [5]: no binding | binding result [1]: no binding (tested: 500 nM) | Kd [6]: ~10 nM | Kd [7]: 2 nM | Kd [8]: 34 nM | Kd [9]: 3.2 nM

B6: T3 single-loop GFAb with the T3 102-103 binding loop in the 20-5-8 scaffold (surrogate loop at 172-173) (designed binder)
chain: MSKGEELFTGVVPILVELNGDVNGHKFSVSGEGEGDATHGKLTLKFICTTGKLPVPWPTLVTTLGYGVQCFARYPDHMKQHDFFKSTMPEGYVQERTIFFKDLKVINPFTVRSTSDGTYKTRAEVKFEGGTLVNRIELKGIDFKEDGNILGHKLEYNYNSHNVYIMADKQKNGIKANFKIRHNIKSRERDYRLDYTRDGSVQLADHYQQNTPIGDGPVLLPDNHYLSTQSKLSKDPNEKRDHMVLVEFVTAAGITHGMDELYK
notes: also called single loop knock-in of T3
Kd [10]: 19 nM

B7: T3 single-loop GFAb with the T3 172-173 binding loop in the 20-5-8 scaffold (surrogate loop at 102-103) (designed binder)
chain: MSKGEELFTGVVPILVELNGDVNGHKFSVSGEGEGDATHGKLTLKFICTTGKLPVPWPTLVTTLGYGVQCFARYPDHMKQHDFFKSTMPEGYVQERTIFFKDLKQHFWSTPRTTSDGTYKTRAEVKFEGGTLVNRIELKGIDFKEDGNILGHKLEYNYNSHNVYIMADKQKNGIKANFKIRHNIKSRNAWVVHRRTRDGSVQLADHYQQNTPIGDGPVLLPDNHYLSTQSKLSKDPNEKRDHMVLVEFVTAAGITHGMDELYK
notes: as for B6
Kd [10]: 300 nM

B8: 2.7 GFAb (designed binder)
chain: MSKGEELFTGVVPILVELNGDVNGHKFSVSGEGEGDATHGKLTLKFICTTGKLPVPWPTLVTTLGYGVQCFARYPDHMKQHDFFKSTMPEGYVQERTIFFKDLKVFSSLRYHVTSDGTYKTRAEVKFEGGTLVNRIELKGIDFKEDGNILGHKLEYNYNSHNVYIMADKQKNGIKANFKIRHNIKSRLRMDDTNPTRDGSVQLADHYQQNTPIGDGPVLLPDNHYLSTQSKLSKDPNEKRDHMVLVEFVTAAGITHGMDELYK
notes: Scaffold 20-5-8
binding result [1]: no binding (tested: 500 nM) | Kd [11]: 140 nM

B9: G7 GFAb (designed binder)
chain: MSKGEELFTGVVPILVELNGDVNGHKFSVSGEGEGDATHGKLTLKFICTTGKLPVPWPTLVTTLGYGVQCFARYPDHMKQHDFFKSTMPEGYVQERTIFFKDLKNVIYPFLYATSDGTYKTRAEVKFEGGTLVNRIELKGIDFKEDGNILGHKLEYNYNSHNVYIMADKQKNGIKANFKIRHNIKSRRVTKTKHKTRDGSVQLADHYQQNTPIGDGPVLLPDNHYLSTQSKLSKDPNEKRDHMVLVEFVTAAGITHGMDELYK
notes: Scaffold 20-5-8
binding result [1]: no binding (tested: 500 nM)

B10: G4 GFAb (designed binder)
chain: MSKGEELFTGVVPILVELNGDVNGHKFSVSGEGEGDATHGKLTLKFICTTGKLPVPWPTLVTTLGYGVQCFARYPDHMKQHDFFKSTMPEGYVQERTIFFKDLKRGVSKSFLLTSDGTYKTRAEVKFEGGTLVNRIELKGIDFKEDGNILGHKLEYNYNSHNVYIMADKQKNGIKANFKIRHNIKSRQGITKGYKTRDGSVQLADHYQQNTPIGDGPVLLPDNHYLSTQSKLSKDPNEKRDHMVLVEFVTAAGITHGMDELYK
notes: Scaffold 20-5-8
binding result [1]: no binding (tested: 500 nM)

B11: G8 GFAb (designed binder)
chain: MSKGEELFTGVVPILVELNGDVNGHKFSVSGEGEGDATHGKLTLKFICTTGKLPVPWPTLVTTLGYGVQCFARYPDHMKQHDFFKSTMPEGYVQERTIFFKDLKSHCLFRKCYTSDGTYKTRAEVKFEGGTLVNRIELKGIDFKEDGNILGHKLEYNYNSHNVYIMADKQKNGIKANFKIRHNIKSRARSIRMKVTRDGSVQLADHYQQNTPIGDGPVLLPDNHYLSTQSKLSKDPNEKRDHMVLVEFVTAAGITHGMDELYK
notes: Scaffold 20-5-8
binding result [1]: no binding (tested: 500 nM)

B12: G6 GFAb (designed binder)
chain: MSKGEELFTGVVPILVELNGDVNGHKFSVSGEGEGDATHGKLTLKFICTTGKLPVPWPTLVTTLGYGVQCFARYPDHMKQHDFFKSTMPEGYVQERTIFFKDLKRVSRFLLTTTSDGTYKTRAEVKFEGGTLVNRIELKGIDFKEDGNILGHKLEYNYNSHNVYIMADKQKNGIKANFKIRHNIKSRKSRIISSQTRDGSVQLADHYQQNTPIGDGPVLLPDNHYLSTQSKLSKDPNEKRDHMVLVEFVTAAGITHGMDELYK
notes: Scaffold 20-5-8
binding result [1]: no binding (tested: 500 nM)
